± gives the standard deviation. Only a part is listed here, and it is no random draw.
Tested on: MIWI (PIWIL1) piRISC loaded with L1MC piRNA (30 nt)
Assay: pre-steady-state target cleavage rate (min^-1); MIWI and MILI are mouse PIWI proteins and EfPiwi is from a freshwater sponge; tags in brackets are library labels; higher = faster piRNA-guided slicing of the target
Conditions: guide: L1MC piRNA 5'p-UAACUAAAUACUAUGCAAGCUGUAGGUCCU
Outline: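 Sequencing of uncleaved targets, normalised to depth and to weakly complementary targets, was the readout of this Cleave-'n-Seq assay. A transcribed, DNA-blocked target RNA library (0.1 nM) was mixed with 1 nM active affinity-purified piRISC carrying one synthetic guide, with or without 500 nM GTSF1 partner protein, in HEPES–potassium acetate buffer at 33 °C for 0–8 or 0–960 min. Three trials were pooled, k3 was capped at 0.0001 min^-1, and a burst-and-steady-state fit gave the pre-steady-state cleavage rate.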

[1] = auxiliary factor: 500 nM mouse GTSF1
[2] = auxiliary factor: none (no GTSF1)

Row | Sequence | pre-steady-state target cleavage rate [1] | pre-steady-state target cleavage rate [2]
1 | UCCACCUACAGUCUUGCAUAGUAUUUAGUUA | 0.731 ± 0.071 | 0.0303 ± 0.006
2 | AGGACGAACAGCUUGCAUAGUAUUUUCAAA | 0.233 ± 0.04 | 0.00425 ± 0.0027
3 | UCCUGGAUGUGCUUGCAUUGUAUUUAGAUA | 0.0181 ± 0.0038 | 0.0063 ± 0.0025
4 | AGGACCUACAGCAUGCAUAGUAUUAAGUUA | 0.942 ± 0.077 | 0.0212 ± 0.0056
5 | UGGACCUUGAGCUUGCAUAGUAUUUAGAAA | 0.283 ± 0.034 | 0.00743 ± 0.0027
6 | UCCACCUUCAGCUUGCAAAGUAUUUAGUUA | 1.17 ± 0.038 | 0.0305 ± 0.0063
7 | UCCUCCUACAGCUUGCUAAGUAUUUAGUUA | 0.226 ± 0.021 | 0.00288 ± 0.0013
8 | UCCUCCAACAGCUUGCAUAGUAUUAAGUUA | 0.304 ± 0.024 | 0.0183 ± 0.0026
9 | UGGACCUAACAGCUUGCAUAGUAUUUAGUUA | 1.33 ± 0.061 | 0.0609 ± 0.01
10 | UCGACCUACAGCUUGCAUAGCAUUUAGUUA | 0.467 ± 0.022 | 0.0289 ± 0.0056
11 | UCGACCUACAGUCUUGCAUAGUAUUUAGUUA | 1.16 ± 0.063 | 0.0611 ± 0.012
12 | UCCUGGAUCAGCUCGCAUAGUAUUUAGUUA | 1.27 ± 0.049 | 0.0288 ± 0.0077
13 | UCCUGGAACAGCUUGCUUAGAAUUUAGUUA | 0.133 ± 0.015 | 0.0129 ± 0.0048
14 | UCCUGGUACAGCUUGCUUAGUAUUAAGUUA | 0.386 ± 0.071 | 0.0178 ± 0.0056
15 | UCCUGGAUGUCCUUGCAUAGUAUUUAGGUUA | 0.0387 ± 0.0082 | 0.00647 ± 0.0028
16 | UCCUCCAACAGCUUCCAUAGUAUUUAGUUA | 0.0705 ± 0.019 | 0.00346 ± 0.0019
17 | UCCACCUACACCUUGCAUACUAUUUAGUUA | 0.227 ± 0.033 | 0.0219 ± 0.0031
18 | UGGACCUACAGCUUGCAAAGUAAUUAGUUA | 0.73 ± 0.048 | 0.0109 ± 0.0039
19 | UGGACCUACAGCUUGCAUACUUUUUAGUUA | 0.0337 ± 0.0046 | 0.00745 ± 0.0014
20 | UCCUGGAUCAGCUUGCAUAGUAUUUAGUUU [g2:g22:cont:t1U] | 1.54 ± 0.089 | 0.0667 ± 0.016

Row | Sequence | pre-steady-state target cleavage rate [1] | pre-steady-state target cleavage rate [2]
21 | UGGACCUACAGUCUUGCAUAGUAUUUAGUUA | 1.15 ± 0.087 | 0.0649 ± 0.013
22 | UCCUGGAUCAGCUUGCAUAGUAUUAUAGUUA | 0.882 ± 0.045 | 0.0161 ± 0.0042
23 | UCCUGGAUGACCUUGCAUUGUAUUUAGUUA | 0.0202 ± 0.0061 | 0.00292 ± 0.0024
24 | UCCUGGAACAGACUUGCAUAGUAUUUAGUUA | 0.798 ± 0.048 | 0.0427 ± 0.0093
25 | AGGACCUACAGCUUGCAUACUAUUUAGUUA | 0.451 ± 0.029 | 0.0411 ± 0.0076
26 | UCCACCUACAGGUUGCAUAGUAUAUAGUUA | 0.787 ± 0.099 | 0.0128 ± 0.0027
27 | UCCUCCUACAGCUCUGCAUAGUAUUUAGUUA | 1.03 ± 0.044 | 0.0182 ± 0.0041
28 | AGGACCUACAGCUUGCAUUGUAUUUAGUAA | 0.455 ± 0.041 | 0.0138 ± 0.0038
29 | UCCUGGUACUGCUUGCAUAGUAUUUAGUUA | 0.454 ± 0.054 | 0.0342 ± 0.0058
30 | UCCUGGUACAGCUUGCAUAGUAUCUUAGUUA | 0.427 ± 0.051 | 0.0115 ± 0.0042
31 | UCCUGGAACAGCUUGCAUAGUUUUAAGUUA | 0.13 ± 0.018 | 0.0139 ± 0.0037
32 | UCCUCCUACAGCUUGCAAAGUAUUUAGUAA | 0.545 ± 0.039 | 0.0171 ± 0.0037
33 | UGGACGAACAGCUUGCAUAGUAUUUAGAAA | 0.485 ± 0.05 | 0.0157 ± 0.0042
34 | UCCUCCUACAGCUUGCAUAGUAUUUAGUGUA | 0.322 ± 0.033 | 0.0225 ± 0.0046
35 | UCCUGCUACAGCUUGCUUAGUUUUUAGUUA | 0.187 ± 0.015 | 0.0115 ± 0.0034
36 | UCCUGGAUCAGCUUGGAAAGUAUUUAGUUA | 0.323 ± 0.026 | 0.00319 ± 0.0027
37 | UCCUCCUACAGCAUGCUUAGUAUUUAGUUA | 0.662 ± 0.052 | 0.00816 ± 0.0015
38 | UCCACCUACAGCUUGCAUAGUAGUUUAGUUA | 0.357 ± 0.019 | 0.00828 ± 0.0029
39 | UCCUGGAUGUCCUUGCAUAGUAUUUGGUUA | 0.0543 ± 0.0099 | 0.0099 ± 0.0026
40 | UCCUGGAUGUCGUUUGCAUAGUAUUUAGUUA | 0.469 ± 0.029 | 0.0231 ± 0.0066

Row | Sequence | pre-steady-state target cleavage rate [1] | pre-steady-state target cleavage rate [2]
41 | UCGACCUACAGCUUGCAUAGUAAUUAGUAA | 0.594 ± 0.044 | 0.0173 ± 0.0047
42 | UCCUGGAUCAGCAUGCAUAGUAAUUAGUUA | 0.253 ± 0.029 | 0.00607 ± 0.0027
43 | UCGACCUUCAGCUUGCAUAGUAUAUAGUUA | 0.901 ± 0.049 | 0.0272 ± 0.007
44 | UCCUGGAUGUGCUUGCGUAGUAUUUAGUUA | 0.188 ± 0.024 | 0.0286 ± 0.0069
45 | UGGAGCUACAGCUUGCAUAGUAUUUACAAA | 0.276 ± 0.036 | 0.00812 ± 0.0027
46 | AGGACCAUCAGCUUGCAUAGUAUUUAGUAA | 0.911 ± 0.057 | 0.0576 ± 0.012
47 | UCGACCUACAGCUUGCAUAGUAAAUAGUUA | 0.749 ± 0.046 | 0.00874 ± 0.0022
48 | UCCUCCUACAGCUUGCAUAGUAUUUAGAUA | 0.42 ± 0.045 | 0.0188 ± 0.0053
49 | UCCUGCUACAGCUUGCAUACUUUUUAGUUA | 0.0369 ± 0.0077 | 0.00652 ± 0.0018
50 | UCGACCUACAGCUUGCAUAGAAUUUACUUA | 0.348 ± 0.045 | 0.0173 ± 0.0046
51 | UGGACCUAGAGCUAGCAUAGUAUUUAGUUA | 1.06 ± 0.063 | 0.0168 ± 0.0043
52 | UGGACCUUGUGCUUGCAUAGUAUUUAGUAA | 0.348 ± 0.042 | 0.0178 ± 0.0047
53 | UCCACCUACAGCUUGCUUUGUAUUUAGUUA | 0.184 ± 0.013 | 0.00506 ± 0.00096
54 | UCCUCCUACAGCAUGCAUAGUUUUUAGUUA | 0.332 ± 0.024 | 0.0106 ± 0.0017
55 | UCCUGGAUGAGCUUGCAUAUUAUUUAGUUA | 0.824 ± 0.058 | 0.0317 ± 0.0088
56 | UGGACCUUCAGCUUGCAUAGUAAUUAGUUA | 0.925 ± 0.056 | 0.0263 ± 0.0083
57 | AGGACCUACAGCUUGCAAUGUAUUUAGUUA | 0.573 ± 0.043 | 0.00531 ± 0.0019
58 | UCCUGGAUCAGCUUGCAUAGUAUAUUAGUUA | 0.959 ± 0.094 | 0.00658 ± 0.0033
59 | UCCUGGAUGAGCUUGCAUUGUAUUUAGUAA | 0.27 ± 0.033 | 0.0102 ± 0.0038
60 | UCCACCUACAGCUUGCAUACUUUUUAGUUA | 0.0393 ± 0.0087 | 0.00562 ± 0.0019

Reference: the supplement of paper PMC10338343
